# Source: article PMC6919601, “Identification of Plasmodium dipeptidyl aminopeptidase allosteric inhibitors by high throughput screening” (PLoS ONE, 2019)
# Several values for one entry are separate records, joined by “and”; a condition that tells them apart may be missing. Equal values may be shown once. Hit rate of the full screen: of about 110,000 compounds, about 230 (0.21%) showed an effect of 50% or more. Some of the results follow.
# Biological target: DPAP1 (Plasmodium falciparum, UniProt Q8IIJ9)
# Test: primary screen, percent inhibition; read by cleavage of a fluorogenic dipeptide substrate; higher = more effect of the substance
# Set-up: species or system P. falciparum D10 trophozoite lysates; single well
# 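Also: 30 min substrate incubation versus DMSO and 10 µM JCP410 controls.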
# DPAP1, sequence (Q8IIJ9 whole entry, looked up): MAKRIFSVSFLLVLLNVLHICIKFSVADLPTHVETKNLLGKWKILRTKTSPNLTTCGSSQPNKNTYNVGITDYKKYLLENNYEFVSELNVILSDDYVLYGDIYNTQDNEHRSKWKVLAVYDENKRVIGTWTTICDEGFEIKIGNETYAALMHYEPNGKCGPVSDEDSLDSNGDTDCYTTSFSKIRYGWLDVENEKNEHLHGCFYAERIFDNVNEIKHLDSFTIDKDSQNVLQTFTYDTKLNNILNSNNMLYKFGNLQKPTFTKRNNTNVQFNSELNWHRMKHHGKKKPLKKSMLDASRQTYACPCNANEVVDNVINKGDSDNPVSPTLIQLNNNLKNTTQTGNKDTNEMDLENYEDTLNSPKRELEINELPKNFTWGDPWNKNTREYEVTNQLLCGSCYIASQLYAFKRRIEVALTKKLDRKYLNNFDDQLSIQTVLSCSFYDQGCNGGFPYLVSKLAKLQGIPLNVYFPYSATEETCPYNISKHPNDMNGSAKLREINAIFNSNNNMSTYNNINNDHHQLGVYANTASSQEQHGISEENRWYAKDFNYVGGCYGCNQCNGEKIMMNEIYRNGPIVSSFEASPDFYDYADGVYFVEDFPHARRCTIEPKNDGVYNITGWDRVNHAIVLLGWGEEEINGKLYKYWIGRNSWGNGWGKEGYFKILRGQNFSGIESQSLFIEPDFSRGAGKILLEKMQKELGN
row,SMILES,% Inhibition @ 10 uM
1,CCN1/C(=c2/s/c(=C3/C(=O)N(c4ccccc4)N=C3C)n(CC)c2=O)C=Cc2ccccc21,1.4%
2,OCC1CCCCN1C1CCN(CCc2ccccc2)CC1 (centres unmarked),0.217%
3,O=C(NCC1CCCO1)c1c(NC(=O)c2cccc3ccccc23)sc2c1CCCC2 (centres unmarked),-1.52%
4,COC(=O)c1ccc(/C(O)=C(\C#N)c2nc3ccccc3s2)cc1,1.39%
5,CCOCCCNC(=O)c1cc(C)nn1-c1ccccc1,-1.89%
6,CCOC(=O)N1CCN(S(=O)(=O)c2ccc(C)cc2)C1,-3.69%
7,CN(C)c1nc(N)nc(Cn2nnc(-c3cccc(C(F)(F)F)c3)n2)n1,-2.19%
8,O=C(NCCCc1nc2ccccc2n1Cc1cccc2ccccc12)c1ccco1,-1.22%
9,CC(=O)Nc1ncnc2[nH]cnc12,1.12%
10,Cc1noc(NS(=O)(=O)c2ccc(NC(=O)c3c(-c4ccccc4Cl)noc3C)cc2)c1C,-5.6%
11,O=C(Cn1ncc2c3ccccc3n(Cc3ccccc3)c2c1=O)NCc1cccc(Cl)c1,0.137%
12,Cc1ccc(N2C(=O)c3oc4ccccc4c(=O)c3C2c2ccc(O)cc2)nc1 (centres unmarked),-5.51%
13,CN(C1CCCCC1)S(=O)(=O)c1ccc2nc(O)cc(C(=O)NCc3ccccc3)c2c1,3.89%
14,COc1ccc(C(=O)NCC2(c3ccc(OC)c(OC)c3)CCCC2)cc1OC,-10.2%
15,CCN1CCN(C(=O)Cn2c(=S)[nH]c3c([nH]c4ccc(OC)cc43)c2=O)CC1,-0.495%
16,CCn1nc(C)c(CCNC(=O)c2cc3c(=O)n(Cc4cccnc4)ccc3nc2C)c1C,-5.91%
17,CCOC(=O)c1cc2c(=O)n3ccccc3nc2n(C2CCCCC2)c1=N,0.0645%
18,CCOC(=O)c1cnc(SCc2nc(-c3ccccc3C)oc2C)nc1N,-2.3%
19,CC(=O)NS(=O)(=O)c1ccc(NC(=O)C2C3C=CC(C3)C2C(=O)O)cc1 (centres unmarked),-7.09%
20,CC(C)=CCCC12CCC(CO)(CO1)C(C)C2 (centres unmarked),5.06%
21,Cc1nn(Cc2nc(-c3ccc4c(c3)OCO4)no2)c(C)c1Br,2.62%
22,CCOC(=O)c1sc(NC(=O)c2ccccc2C)c(C(=O)OCC)c1C,-5.63%
23,CCN(CC)CCN(C(=O)c1ccco1)c1nc2cc3c(cc2s1)OCO3,2.25%
24,Cc1ccccc1CNC(=O)Cn1ncc2c(Cl)cccc21,-2.88%
25,CC(C)(C)c1ccc(C(=O)Nc2nonc2-c2nc3ccccc3[nH]2)cc1,0.596%

row,SMILES,% Inhibition @ 10 uM
1,CCOc1ccc(-c2cc(C(=O)NCCc3sccc3C)[nH]n2)cc1,5.77%
2,O=C(O)CCCC(=O)Nc1ccc(OCc2nc3ccccc3s2)cc1,1.03%
3,COC(=O)c1sccc1NC(C)=O,39.4%
4,O=C(O)c1c2c(nc3ccccc13)CCCC2,1.7%
5,CCOC(=O)c1c(S(=O)(=O)N(C)Cc2ccccc2)c(C)n(C)c1C,-4.99%
6,COc1cc(OC)cc(C2C(C#N)=C(N)Oc3[nH]nc(-c4cccnc4)c32)c1 (centres unmarked),-0.994%
7,COc1ccc(OC)c(N(CC(=O)Nc2cccc(Br)c2)S(C)(=O)=O)c1,-1.43%
8,CC1(C)CC(NS(=O)(=O)c2ccc3nc(O)sc3c2)CC(C)(C)N1,-1.24%
9,Cc1cc(-c2ccc(NC(=O)CCC(=O)O)c(C)c2)ccc1NC(=O)CCC(=O)O,-1.29%
10,Clc1ccc(-c2nn3c(C4COc5ccccc5O4)nnc3s2)cc1 (centres unmarked),53.7%
11,COc1cc(NC(C)CCCN)c2ncccc2c1Oc1ccccc1 (centres unmarked),5.44%
12,CSc1[nH]c(-c2ccccc2)nc1S(=O)(=O)c1ccccc1,19.3%
13,Cc1ccc(-c2c(C(=O)O)n(CC(C)C)c(=O)c3ccccc23)cc1C,5.13%
14,CC(C)NC(=O)N1CC(c2ccccc2)C(c2ccc(Cl)cc2)=N1 (centres unmarked),-4.15%
15,CCOc1ccc(N(CC(=O)NC)S(=O)(=O)c2ccc(C)cc2)cc1,3.06%
16,CC1=CC(=O)C2(C)C3CCC4CC(=O)CCC4(C)C3=CCC2S1(=O)=O (centres unmarked),-1.69%
17,CC(C)CC(C(=O)NCC#N)c1cccc(-c2ccc(-c3csc(N)n3)cc2)c1 (centres unmarked),0.173%
18,COc1cc(CNc2ccc(F)c(Cl)c2)cc(OC)c1,2.1%
19,COc1ccc(C(=O)[C@H]2[C@H](c3ccc(SC)cc3)C(C#N)(C#N)[C@@H]3c4ccccc4C=CN32)cc1,-0.597%
20,CC1CCN(c2nc3c(-c4cccc(C(F)(F)F)c4)nnn3c3ccccc23)CC1,-8.42%
21,O=C(c1cc2c(O)nc3ccccc3c2s1)N1CCN(Cc2ccc3c(c2)OCO3)CC1,1.23%
22,O=C(O)c1cnccc1C(=O)NCCc1ccccc1,-2.67%
23,COc1ccc(S(=O)(=O)Nc2cc(C)ccc2OC)cc1,-4.67%
24,Cc1ccc(OCCCn2nnc3sc4c(c3c2=O)CCC(C)C4)cc1 (centres unmarked),4%
25,CCCN1CCN(C(=O)CS(=O)(=O)Cc2nc(-c3cccc(OC)c3)oc2C)CC1,-0.138%

row,SMILES,% Inhibition @ 10 uM
1,O=C1c2[nH]nc(-c3ccccc3O)c2C(c2cccc(O)c2)N1CC1CCCO1 (centres unmarked),-3.12%
2,CCN1C(=O)NC(c2ccccc2C(F)(F)F)C(C(=O)OC)=C1C (centres unmarked),4.32%
3,CCOC(=O)c1nc2ccccc2nc1C,4.21%
4,O=C(CSc1nc2cccnc2[nH]1)NCCc1nc2ccccc2[nH]1,4.79%
5,O=C(Nc1ccc(NC(=O)c2ccco2)c(Cl)c1)c1ccco1,4.33%
6,CC(=O)N1CCC(N(Cc2ccco2)C(=O)NC2CCCC2)CC1,5.62%
7,Cc1ccc(CNC(=O)c2cc3c(s2)CN(Cc2ccccc2)C3)cc1,-5.8%
8,Cc1cc(-c2ccccc2)nn1-c1nc2ccccc2s1,9.1%
9,Nc1nc2c3ccccc3nc(Cc3ccccc3)n2n1,1.63%
10,O=C(NC1CC1)C1CCN(C(=O)c2ccc(Br)cc2)CC1,-0.999%
11,CCc1cc2c(C)cc(=O)oc2cc1O,-0.597%
12,CCOc1ccccc1N1CCN(Cc2ccc3ccccc3c2)CC1,3.16%
13,Cc1ccc2nc(O)c(CN(C(C)C)S(=O)(=O)c3ccccc3)cc2c1,-2.4%
14,COC(=O)c1ccc(Cn2c(S(=O)(=O)Cc3ccccc3)nc3ccccc32)cc1,-0.0108%
15,NS(=O)(=O)c1ccc(CCNC(=O)CCCn2ncn3c(cc4occc43)c2=O)cc1,4.55%
16,Cc1ccc(OCc2nc(C#N)c(NCCCN(C)C)o2)cc1,0.778%
17,CCc1ccc(-c2cc3c(=O)n(CC(=O)NCCOC)nc(C)n3n2)cc1,0.623%
18,Cc1cc(C(=O)NCC2CCCO2)c2c(C)nn(-c3ccccc3)c2n1 (centres unmarked),3.75%
19,CCOc1ccc(N2C(=O)C3C(C(C)=O)=NN(c4ccccc4Cl)C3C2=O)cc1 (centres unmarked),-0.0619%
20,Cc1cc(C)cc(NC(=O)c2cc3c(=O)n4cccc(C)c4nc3n2C)c1,0.331%
21,Cc1cc(O)nc(SCCc2ccccc2)n1,-5.69%
22,O=C1Nc2c(Cl)cc(Cl)cc2C1=O,2.51%
23,Nc1c(-c2nc(-c3ccncc3)no2)nnn1-c1ccc(F)cc1,1.66%
24,Cn1ccc(CNC(=O)COc2ccc(Br)cc2)n1,-0.759% and 0.214%
25,Cc1ccccc1S(=O)(=O)Cc1ccc(C(=O)N2CCOCC2)o1,-6.89%

row,SMILES,% Inhibition @ 10 uM
1,O=C(CN1C(=O)S/C(=C/c2ccc(O)cc2)C1=O)Nc1ccccc1,1.15%
2,Cc1cc(Cl)cc2c1NC(c1ccc(Br)cc1)=NN=C2c1ccccc1,6.5%
3,CCN(CC)CCCNC(=S)N1CCN(c2ccc3nnc(-c4ccc(F)cc4)n3n2)CC1,-1.37%
4,COc1cc(C=C2C(=O)N(C)C(=O)N(C)C2=O)ccc1OCC(=O)O,0.343%
5,CC1=CC2=NC(=O)/C(=C\c3ccc(-c4ccccc4Cl)o3)C(=N)N2O1,-1.65%
6,O=C(NCc1ccccc1Cl)c1c(-n2cccc2)sc2c1CCC2,-3.47%
7,N#Cc1cc2c(nc1SCC(=O)c1ccc(Cl)cc1)C1CCN2CC1,0.895%
8,Nc1ncc2c(n1)CC(c1ccco1)CC2=O (centres unmarked),4.55%
9,COc1ccc(C(C2=C(O)CC(C)(C)CC2=O)c2c(C)[nH]c3ccccc23)cc1 (centres unmarked),0.275%
10,O=C(COc1ccc([N+](=O)[O-])cc1)OCCOc1ccc([N+](=O)[O-])cc1,-0.0267%
11,CC(C)(C)c1nc2scc(-c3ccccc3)c2c(=O)o1,5.16%
12,O=C(CCn1ccc2cc(S(=O)(=O)N3CCCC3)ccc21)NCc1ccc(Cl)cc1,2.82%
13,COc1ccc(O)c(C2=NN3C(C2)c2cc(Br)ccc2OC3(C)C)c1 (centres unmarked),4.97%
14,Cc1ccc2c(cnn2C(=O)CCCC(=O)NCC2CCCO2)c1 (centres unmarked),0.386%
15,CCCCNC(=O)C1CCCN(S(=O)(=O)N2CCCCCC2)C1 (centres unmarked),1.16%
16,CS(=O)(=O)N(CC(=O)N1CCN(Cc2ccccc2)CC1)c1cc(Cl)cc(Cl)c1,-3.77%
17,COc1ccc(/C=C(/NC(=O)c2ccccc2)c2nc3ccccc3[nH]2)cc1OC,7.09%
18,CCCN1CCC(NC(C)c2ccc(F)cc2)CC1 (centres unmarked),-4.75%
19,CC1=CCC2C(=O)N(c3ccc4ccccc4n3)C(=O)C2C1 (centres unmarked),5.23%
20,Cc1nn(-c2ccc(F)cc2)c(-n2cccc2)c1C(=O)NC(C)(C)C,-0.571%
21,CCOC(=O)c1c(Nc2ccc(Cl)cc2)cc(C)nc1C,-10.2%
22,COc1ccc(S(=O)(=O)N2CCN(c3ccc(F)cc3)CC2)cc1OC,-10.6%
23,COc1cc(CN2CCN(c3ccccc3C)CC2)cc(OC)c1,1.9%
